Results: the supplement of paper PMC8728848
The other results are listed elsewhere or left out.

Key:
Assay in all cases: glycan array binding signal (z-score within array); higher = stronger binding
Details in all cases: glycan notation: IUPAC condensed, linker removed
GalNAc(b1-4)GlcNAc = target: GalNAc(b1-4)GlcNAc
Outline: (§1)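 Glycan array data were curated from 3228 arrays in the Consortium for Functional Glycomics database and kept only where the protein sequence was available. Glycan names were converted to IUPAC-condensed notation, and columns mapping to the same glycan were averaged. The binding signal is a within-array Z-score, averaged across arrays of the same protein sequence at different concentrations or buffers and across linkers. Negative Z-scores can be read as non-binding.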

[1] = target: GalNAc(b1-4)GlcNAc(b1-2)Man
Outline: as §1

[2] = target: GalNAc(b1-4)GlcNAc(b1-2)Man(a1-3)[GalNAc(b1-4)GlcNAc(b1-2)Man(a1-6)]Man(b1-4)GlcNAc(b1-4)GlcNAc
Outline: as §1

[3] = target: GalNAc(b1-4)GlcNAc(b1-3)GalNAc(b1-4)GlcNAc
Outline: as §1

GalNAc(b1-4)GlcNAc6S = target: GalNAc(b1-4)GlcNAc6S
Outline: as §1

GalNAc(b1-6)GalNAc = target: GalNAc(b1-6)GalNAc
Outline: as §1

GalNAc3S(b1-4)GlcNAc = target: GalNAc3S(b1-4)GlcNAc
Outline: as §1

GalNAc3S(b1-4)GlcNAc3S = target: GalNAc3S(b1-4)GlcNAc3S
Outline: as §1

[4] = target: GalNAc3S(b1-4)[Fuc(a1-3)]GlcNAc
Outline: as §1

GalNAc4S6S(b1-4)GlcNAc = target: GalNAc4S6S(b1-4)GlcNAc
Outline: as §1

GalNAc6S(b1-4)GlcNAc = target: GalNAc6S(b1-4)GlcNAc
Outline: as §1

Glc(a1-4)Glc = target: Glc(a1-4)Glc
Outline: as §1

[5] = target: Glc(a1-4)Glc(a1-4)Glc(a1-4)Glc
Outline: as §1

Glc(a1-6)Glc(a1-6)Glc = target: Glc(a1-6)Glc(a1-6)Glc
Outline: as §1

[6] = target: Glc(a1-6)Glc(a1-6)Glc(a1-6)Glc
Outline: as §1

Glc(b1-4)Glc = target: Glc(b1-4)Glc
Outline: as §1

Glc(b1-6)Glc = target: Glc(b1-6)Glc
Outline: as §1

GlcA(b1-3)Gal = target: GlcA(b1-3)Gal
Outline: as §1

GlcA(b1-3)GlcNAc = target: GlcA(b1-3)GlcNAc
Outline: as §1

GlcA(b1-6)Gal = target: GlcA(b1-6)Gal
Outline: as §1

[7] = target: GlcA3S(b1-3)Gal(b1-4)GlcNAc(b1-2)Man
Outline: as §1

[8] = target: GlcA3S(b1-3)Gal(b1-4)GlcNAc(b1-3)Gal(b1-4)Glc
Outline: as §1

[9] = target: GlcNAc(a1-3)Gal(b1-4)GlcNAc
Outline: as §1

[10] = target: GlcNAc(a1-4)Gal(b1-3)GlcNAc
Outline: as §1

[11] = target: GlcNAc(a1-4)Gal(b1-4)GalNAc
Outline: as §1

[12] = target: GlcNAc(a1-4)Gal(b1-4)GlcNAc
Outline: as §1

[13] = target: GlcNAc(a1-4)Gal(b1-4)GlcNAc(b1-3)Gal(b1-4)Glc
Outline: as §1

[14] = target: GlcNAc(a1-4)Gal(b1-4)GlcNAc(b1-3)Gal(b1-4)GlcNAc
Outline: as §1

[15] = target: GlcNAc(a1-4)Gal(b1-4)GlcNAc(b1-3)Gal(b1-4)GlcNAc(b1-3)Gal(b1-4)GlcNAc
Outline: as §1

[16] = target: GlcNAc(a1-4)Gal(b1-4)GlcNAc(b1-3)Gal(b1-4)[Fuc(a1-3)]GlcNAc(b1-3)Gal(b1-4)[Fuc(a1-3)]GlcNAc
Outline: as §1

[17] = target: GlcNAc(a1-6)Gal(b1-4)GlcNAc
Outline: as §1

[18] = target: GlcNAc(b1-2)Gal(b1-3)GalNAc
Outline: as §1

[19] = target: GlcNAc(b1-2)Man(a1-3)[GlcNAc(b1-2)Man(a1-6)]Man(b1-4)GlcNAc(b1-4)GlcNAc
Outline: as §1

[20] = target: GlcNAc(b1-2)Man(a1-3)[GlcNAc(b1-2)Man(a1-6)]Man(b1-4)GlcNAc(b1-4)[Fuc(a1-6)]GlcNAc
Outline: as §1

[21] = target: GlcNAc(b1-2)Man(a1-3)[GlcNAc(b1-4)][GlcNAc(b1-2)Man(a1-6)]Man(b1-4)GlcNAc(b1-4)GlcNAc
Outline: as §1

[22] = target: GlcNAc(b1-2)Man(a1-3)[GlcNAc(b1-4)][GlcNAc(b1-2)Man(a1-6)]Man(b1-4)GlcNAc(b1-4)[Fuc(a1-6)]GlcNAc
Outline: as §1

[23] = target: GlcNAc(b1-2)[GlcNAc(b1-4)]Man(a1-3)[GlcNAc(b1-2)Man(a1-6)]Man(b1-4)GlcNAc(b1-4)GlcNAc
Outline: as §1

[24] = target: GlcNAc(b1-2)[GlcNAc(b1-4)]Man(a1-3)[GlcNAc(b1-4)][GlcNAc(b1-2)Man(a1-6)]Man(b1-4)GlcNAc(b1-4)GlcNAc
Outline: as §1

[25] = target: GlcNAc(b1-2)[GlcNAc(b1-4)]Man(a1-3)[GlcNAc(b1-4)][GlcNAc(b1-2)[GlcNAc(b1-6)]Man(a1-6)]Man(b1-4)GlcNAc(b1-4)GlcNAc
Outline: as §1

[26] = target: GlcNAc(b1-2)[GlcNAc(b1-4)]Man(a1-3)[GlcNAc(b1-4)][GlcNAc(b1-2)[GlcNAc(b1-6)]Man(a1-6)]Man(b1-4)GlcNAc(b1-4)[Fuc(a1-6)]GlcNAc
Outline: as §1

[27] = target: GlcNAc(b1-2)[GlcNAc(b1-6)]Man(a1-6)[GlcNAc(b1-2)Man(a1-3)]Man(b1-4)GlcNAc(b1-4)GlcNAc
Outline: as §1

[28] = target: GlcNAc(b1-2)[GlcNAc(b1-6)]Man(a1-6)[GlcNAc(b1-2)Man(a1-3)]Man(b1-4)GlcNAc(b1-4)[Fuc(a1-6)]GlcNAc
Outline: as §1

[29] = target: GlcNAc(b1-2)[GlcNAc(b1-6)]Man(a1-6)[GlcNAc(b1-4)][GlcNAc(b1-2)Man(a1-3)]Man(b1-4)GlcNAc(b1-4)GlcNAc
Outline: as §1

GlcNAc(b1-3)Fuc = target: GlcNAc(b1-3)Fuc
Outline: as §1

GlcNAc(b1-3)Gal = target: GlcNAc(b1-3)Gal
Outline: as §1

B1: PFL (Pseudomonas fluorescens) (protein)
chain: MSKYAVANQWGGSSAPWHPGGTWVLGARDNQNVVAIEIKSGDGGKSFTGTMTYAGEGPIGFKAQRTGQNQYNVENQWGGNDAPWHPGGKWVIGGRDNQNVIALSVTSSDGGKNLSGTNTYANEGPIGFRGQIE
Q: With B1 as the binder, how does the “glycan array binding signal (z-score)” value (GalNAc(b1-4)GlcNAc) read?
A: -0.11

Q: What about the “glycan array binding signal (z-score)” value [1] of the same binder?
A: -0.117

Q: And the “glycan array binding signal (z-score)” value [2]?
A: -0.103

Q: And the “glycan array binding signal (z-score)” value [3]?
A: -0.116

Q: And the “glycan array binding signal (z-score)” value (GalNAc(b1-4)GlcNAc6S)?
A: -0.117

Q: What about the “glycan array binding signal (z-score)” value (GalNAc(b1-6)GalNAc) of the same binder?
A: -0.116

Q: And the “glycan array binding signal (z-score)” value (GalNAc3S(b1-4)GlcNAc)?
A: -0.115

Q: And the “glycan array binding signal (z-score)” value (GalNAc3S(b1-4)GlcNAc3S)?
A: -0.115

Q: What about the “glycan array binding signal (z-score)” value [4] of the same binder?
A: -0.116

Q: And the “glycan array binding signal (z-score)” value (GalNAc4S6S(b1-4)GlcNAc)?
A: -0.117

Q: What about the “glycan array binding signal (z-score)” value (GalNAc6S(b1-4)GlcNAc) of the same binder?
A: -0.115

Q: And the “glycan array binding signal (z-score)” value (Glc(a1-4)Glc)?
A: -0.116

Q: What about the “glycan array binding signal (z-score)” value [5] of the same binder?
A: -0.111

Q: What about the “glycan array binding signal (z-score)” value (Glc(a1-6)Glc(a1-6)Glc) of the same binder?
A: -0.112

Q: And the “glycan array binding signal (z-score)” value [6]?
A: -0.108

Q: And the “glycan array binding signal (z-score)” value (Glc(b1-4)Glc)?
A: -0.115

Q: And the “glycan array binding signal (z-score)” value (Glc(b1-6)Glc)?
A: -0.11

Q: And the “glycan array binding signal (z-score)” value (GlcA(b1-3)Gal)?
A: -0.111

Q: What about the “glycan array binding signal (z-score)” value (GlcA(b1-3)GlcNAc) of the same binder?
A: -0.115

Q: What about the “glycan array binding signal (z-score)” value (GlcA(b1-6)Gal) of the same binder?
A: -0.11

Q: And the “glycan array binding signal (z-score)” value [7]?
A: -0.116

Q: What about the “glycan array binding signal (z-score)” value [8] of the same binder?
A: -0.113

Q: And the “glycan array binding signal (z-score)” value [9]?
A: -0.112

Q: And the “glycan array binding signal (z-score)” value [10]?
A: -0.118

Q: What about the “glycan array binding signal (z-score)” value [11] of the same binder?
A: -0.112

Q: What about the “glycan array binding signal (z-score)” value [12] of the same binder?
A: -0.113

Q: And the “glycan array binding signal (z-score)” value [13]?
A: -0.117

Q: And the “glycan array binding signal (z-score)” value [14]?
A: -0.117

Q: What about the “glycan array binding signal (z-score)” value [15] of the same binder?
A: -0.11

Q: What about the “glycan array binding signal (z-score)” value [16] of the same binder?
A: -0.104

Q: And the “glycan array binding signal (z-score)” value [17]?
A: -0.117

Q: What about the “glycan array binding signal (z-score)” value [18] of the same binder?
A: -0.113

Q: What about the “glycan array binding signal (z-score)” value [19] of the same binder?
A: -0.116

Q: What about the “glycan array binding signal (z-score)” value [20] of the same binder?
A: 0.012

Q: What about the “glycan array binding signal (z-score)” value [21] of the same binder?
A: -0.114

Q: And the “glycan array binding signal (z-score)” value [22]?
A: -0.113

Q: And the “glycan array binding signal (z-score)” value [23]?
A: -0.069

Q: And the “glycan array binding signal (z-score)” value [24]?
A: -0.11

Q: And the “glycan array binding signal (z-score)” value [25]?
A: -0.117

Q: What about the “glycan array binding signal (z-score)” value [26] of the same binder?
A: -0.119

Q: What about the “glycan array binding signal (z-score)” value [27] of the same binder?
A: -0.114

Q: And the “glycan array binding signal (z-score)” value [28]?
A: -0.102

Q: And the “glycan array binding signal (z-score)” value [29]?
A: -0.113

Q: And the “glycan array binding signal (z-score)” value (GlcNAc(b1-3)Fuc)?
A: -0.109

Q: What about the “glycan array binding signal (z-score)” value (GlcNAc(b1-3)Gal) of the same binder?
A: -0.116
